From the supplement of paper PMC11417369
± gives the standard deviation of the averaged measurements. The list shows a part of the results.

Tested on: PfAP2-EXP AP2 domain (GST-tagged)
Test: gcPBM binding intensity (ln(normalized median fluorescence intensity)); higher = stronger DNA binding
Summary of the method: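 GST-fused DNA-binding domains of P. falciparum, expressed in E. coli, were applied at about 25 μg on average for 1 h to an Agilent 4 × 180k array of primer-extended double-stranded 36-bp intergenic genomic probes and negative controls. Binding intensity is the highest Masliner-normalised natural-log median intensity across replicate spots of either probe orientation, measured with Alexa488 anti-GST antibody and a 488 nm scan.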

In order of rising “gcPBM binding intensity (ln)” value:
1. AAAAAACAAAAAATTACACACATATATAAATATATT [CACACA_site2317]  8.12 ± 0.33
2. TTTTTCAAATTTAATACACACACAAGTATATATTTA [CACACA_site9307]  8.18 ± 0.3
3. TGGTAATTTCTTTGATAAAAATTAATATGTATAAAT [XGTACX_negctrl_site152]  8.2 ± 0.35
4. TAATAATTAATTAATATAATATTTTTTCATAATTAT [XGTACX_negctrl_site602]  8.22 ± 0.4
5. TGAAATTCCATAAAATGTACATATTAGTTTAATTCA [XGTACX_site4031]  8.23 ± 0.36
6. TTTTTTTTTCGGAAAAGTACAAAACTTTTTTATAAT [XGTACX_site4670]  8.26 ± 0.33
7. TATAATGTTAAATAATGTACATATTTTTTTTTTTTT [XGTACX_site4721]  8.29 ± 0.34
8. AACAAATTTTTTTTTCCTTTTTTTTTTTTACTTCAT [CACACA_negctrl_site1214]  8.31 ± 0.71
9. CACATACAGATATATACACACAAATATATATACTCA [CACACA_site4591]  8.36 ± 0.38
10. ACAAGTTAAAATATTACACACATATAAATATATATA [CACACA_site3132]  8.38 ± 0.13
11. ACACAATTGAAATAGTGTACAAAATGTTGTTACATA [XGTACX_site8671]  8.38 ± 0.33
12. AAAGCTAATATTATATGTACTTATATATTTATATAT [XGTACX_site4474]  8.38 ± 0.28
13. AAAAATAAATATATATGTACACATATGTATACAATA [XGTACX_site4692]  8.38 ± 0.23
14. ATATAATATATATATTGTACATATATTTATAAGCAT [XGTACX_site3726]  8.38 ± 0.19
15. AAAAAAAATGGATGATCACACACTTCATAAAAATTG [CACACA_site2213]  8.39 ± 0.56
16. TCTATTAATTAATATACACACATTAGATATAAATAT [CACACA_site7241]  8.41 ± 0.37
17. AAAAAAAAAAAAAAAAGTACTAATTGAATATTAAAC [XGTACX_site3383]  8.41 ± 0.37
18. GTTTTTAAGAAAAACACACACTCCTGTTATTTTATA [CACACA_site3696]  8.41 ± 0.4
19. ATATAGGTATTTAATACACACAAAACTTTCATTCCA [CACACA_site7627]  8.41 ± 0.38
20. ATACAACGATATATATATATACAAATACATATTTAT [CACACA_negctrl_site268]  8.42 ± 0.55
21. ATTAAAAATATAGTCACACATACACCCATATATATT [CACACA_site5394]  8.43 ± 0.48
22. ACAACTCGGAAGGTTTGTACTTAAAGTATAATTAAG [XGTACX_site737]  8.43 ± 0.35
23. AATGTAGCATTTTATCGTACACTTAATACAAAAAAG [XGTACX_site6214]  8.44 ± 0.28
24. TTTGTAAAACTATATTGTACTTTTATATATCTACAA [XGTACX_site5507]  8.44 ± 0.34
25. ATGTATGTATATACTTGTACATATTCATATTAGTAT [XGTACX_site1118]  8.45 ± 0.35
26. TATATATAAAGGTGTACACATATATATATATCTGTA [CACACA_site5311]  8.45 ± 0.17
27. TTTTATTTACACAGTGGTACTATTAAAAATTAATGA [XGTACX_site6737]  8.45 ± 0.4
28. ATTTCATATTATGTAACACACAACAAGATAATCAAA [CACACA_site1960]  8.46 ± 0.54
29. TACACCCATAGACACACACACACGCATAAAAAAAAA [CACACA_site8428]  8.47 ± 0.4
30. TGAATTAAGATTTATTGTACATAATTTATACCATAT [XGTACX_site7034]  8.47 ± 0.16
31. ATTATTTAAATGGATGCACACATGCATTAAATAAAA [CACACA_site5831]  8.48 ± 0.11
32. ATATAAATATATTGCACACACAATTATTATTATTAT [CACACA_site7147]  8.51 ± 0.092
33. TTTTTCTTTTTACATACACACAAAAAAATAAAATAT [CACACA_site581]  8.52 ± 0.47
34. AAGGATGATACAACTTGTACATATTTGCTTAATATA [XGTACX_site764]  8.54 ± 0.28
35. GAAATAAATATAATATATATATATATATATATATGT [TGCATGCA_negctrl_site216]  8.545 ± 0.021
36. TAAATAGATGTTTTATGTACGTATAAATAAAAAAAA [XGTACX_site3412]  8.55 ± 0.38
37. TAATTAAATAAAAAAACACACACATATATACATATA [CACACA_site9141]  8.56 ± 0.4
38. TACTGAAATAATTATTTAAACGTTTTTATATGTATT [CACACA_negctrl_site487]  8.56 ± 0.43
39. AATGTGCTCGCTATTACACACTCATTGGGATAAACT [CACACA_site7043]  8.56 ± 0.4
40. GATTTTTTTTTGTGGACACACAGAAATAAATTTATA [CACACA_site327]  8.57 ± 0.27
41. TATAATAATAATAATAGTACGTATTATTAAAAAACT [XGTACX_site10]  8.59 ± 0.3
42. ATGGTAAGTATTTTATGTACATATATATTTATATAA [XGTACX_site4003]  8.59 ± 0.2
43. TCATACATGGTGTGTTTGCACTTGACCTATATTCAT  8.59 ± 0.35
44. TGAAATTTTTATACATGTACAAAATTAAATATAACA [XGTACX_site7324]  8.6 ± 0.39
45. GTCTATTATTTTTGAAGTACAAAAATTTTAGTTAAA [XGTACX_site4708]  8.6 ± 0.29
46. ACACATATATAAATATGTACATATATATATATACAT [XGTACX_site1595]  8.61 ± 0.23
47. AATTGGAAGAAAAAAAAGGAAGGAAAGTTATTACAT [GTGCAC_negctrl_site74]  8.62 ± 0.41
48. AAAAAAAAAAATATAACACACAACAAAAAAATATAT [CACACA_site1753]  8.63 ± 0.49
49. ATAGAAAAAATATACACACACTTATTAAATAAAAAT [CACACA_site7540]  8.69 ± 0.33
50. AAATAAATGAAACACACACACACAAAAAAAAAAAAC [CACACA_site2625]  8.69 ± 0.53
51. TCGCCCTACAATTTGTTTATATATTAAATAAAATTT [CACACA_negctrl_site883]  8.69 ± 0.42
52. TATATACATGCATATACACACATATATTTATTTATA [CACACA_site6327]  8.7 ± 0.33
53. AATATTTGTTAAAGAGGTACACCATTTGGTAGGGAA [XGTACX_site2165]  8.71 ± 0.36
54. GTATATATGTATGTATGTACGTATATAGTTATGTAT [XGTACX_site6769]  8.71 ± 0.28
55. ATAATATGAAAACACACACACACACTAGAAAAAAAA [CACACA_site5153]  8.72 ± 0.58
56. TAAAAAGTATATAAGAGTACACATATTTATAAATAT [XGTACX_site3084]  8.72 ± 0.28
57. TAAATTTATAGACACACACACATATAAATAAATATA [CACACA_site6530]  8.72 ± 0.47
58. AAATAAATAATATGTAAACACACAAAAAATAAAAAT [CACACA_site8307]  8.77 ± 0.45
59. ATAAGGTTACAACAAACACACAAAGGAATATACTCA [CACACA_site6108]  8.78 ± 0.54
60. ACTTACACAGTTGATGGTACACTTTTATGATTTTGT [XGTACX_site3205]  8.79 ± 0.47
61. TTTTTTAACCTTTTATGTACACAATATTTAACATTT [XGTACX_site1170]  8.79 ± 0.38
62. TCTTGAATAACAAAAAAATGTGCCAACAAAATAAAT [XGTACX_negctrl_site172]  8.79 ± 0.42
63. CAATTACAAAAGAAATGTACTCGTAATAAATAAATA [XGTACX_site1126]  8.8 ± 0.35
64. AATATATTTAATCATACACACATTTATGTACCTATA [CACACA_site1718]  8.8 ± 0.39
65. ATATTACACATATATGCACACATTGTAGTTATTTAT [CACACA_site8843]  8.81 ± 0.3
66. TTTATTTTTTCCAAGTCACACATGTTTTGATATATT [CACACA_site4946]  8.81 ± 0.4
67. TAATAAAGGTGTAATACACACTATAAAAAGGAATAT [CACACA_site4756]  8.84 ± 0.41
68. ATAATTTTTTGATTTGCATGTAATAAATATATGATA [TGCATGCA_site384]  8.84 ± 0.28
69. CATGTGCATATTAAATGTACATATATACATATATAC [XGTACX_site857]  8.835 ± 0.064
70. TATTTTAACATTAGGTGTACATACAAAAATAAAAAT [XGTACX_site8577]  8.87 ± 0.37
71. AGACTTTGTACAAACACACACATGAGCACAATATTA [CACACA_site6755]  8.88 ± 0.5
72. TATATATCAATATGCACACACAAGAAGTAATTATAA [CACACA_site7487]  8.89 ± 0.37
73. TTATTAACCAAACGCACATGCAAAATATATTATATA [TGCATGCA_site915]  8.9 ± 0.34
74. AACAAAATTGAAGGAACACACATACAGATATATATA [CACACA_site4264]  8.91 ± 0.38
75. TTTTTTTAAAGACATGCATGTAATATTTAAATCATT [TGCATGCA_site495]  8.93 ± 0.49
76. CATCATCTTTTAAAGGTGCATAATAATATTGTTAAT  8.94 ± 0.5
77. ATATAAATCTACACCGCACACAAAAACAACAAATAT [CACACA_site2506]  8.95 ± 0.59
78. ATAAAAAAATTAAATACATGCACATATACACATACA [TGCATGCA_site129]  8.96 ± 0.31
79. AATATATTTTTTCACTGTACTTTTATTATATATACA [XGTACX_site8312]  8.97 ± 0.36
80. ATAAACAAAGTTAAATGTACAAAGGGGTAAAAAAAA [XGTACX_site83]  9.05 ± 0.78
81. GGTATACACAGACATGCATGTAATTATATATAGGGA [TGCATGCA_site83]  9.6 ± 0.42
82. ACATATATATAAATATATATATATATATATATATAT [CACACA_negctrl_site874]  10 ± 0.56
83. AGGATACACAGACACACACACATATATATATATATA [CACACA_site907]  10 ± 0.45
84. TATATATATATATATTGTACATTTACCAAATTGTGT [XGTACX_site5791]  10.1 ± 0.25
85. TTACAACATGAAAATGTGCACATATATATATATATA  10.2 ± 0.29
86. ATGTGTATATATTATTGTACATATATATATATATAT [XGTACX_site4627]  10.3 ± 0.2
87. TTTTTTTTTTTCGGGGGTACTAATATATTATTAATA [XGTACX_site7809]  10.4 ± 0.34
88. ATGTTCTTTAAAACCACACACCCCCCAACCCCCCTC [CACACA_site2373]  10.6 ± 0.13
89. AAATTAATATTATGTGCATGCACAAAGAGGAACGAC [TGCATGCA_site754]  10.7 ± 0.18
